Test results from PubChem BioAssay AID624296 (National Center for Advancing Translational Sciences (NCATS), 2012).
Among all 350,000 compounds or so, about 9,900 (2.8%) were called active. The inconclusive results got no clear call from the source; some entries with a clear call stand among them for comparison. Calls follow the shape of the dose curve; as a rule, active = well fitted activation curve with a large enough effect; inconclusive = small, poorly fitted or top-dose-only effect; inactive = no such curve, though single readings can be large or run the other way. No potency is given beside an inconclusive call; the fits are too rough.

experiment: A quantitative high throughput screen for small molecules that induce DNA re-replication in MCF 10a normal breast cells.; also: nearly all actives have a fitted effect of over 50% in size; settings: MCF 10A DNA re-replication, Hoechst nuclear intensity, 48 h; series mostly up to 46.1 µM
Potency is read from the fitted curve at half-maximal effect; tags tell the direction and shape of the fitted curve.

| SMILES | Potency |
| --- | --- |
| CCCCCCCC1CC(/C(C)=N/NC(N)=O)OC1=O (stereo unspecified) | inconclusive [activator, single point] |
| COc1cc(C(=O)/C=C/c2cccnc2)ccc1O | active: 5.8 µM |
| Cc1ccc(Cl)cc1N1CCN(C(=O)c2ccc(NS(=O)(=O)c3c(C)noc3C)cc2)CC1 | active: 14.6 µM |
| Cc1ccc(C(=O)N/N=C/c2ccc(N3CCOCC3)cc2)c(C)c1 | inactive |
| CC(=O)N1CCc2cc(Br)cc(S(=O)(=O)N3CCCCCC3)c21 | inconclusive [activator, single point] |
| CC(C)(C)c1cccc(Oc2nn[nH]n2)c1 | inconclusive [activator, single point] |
| O=C(Nc1ccccc1N1CCCCC1)c1cccc(OC(F)F)c1 | inconclusive [activator, partial curve, poor fit] |
| C[C@H](CO)N1C[C@H](C)[C@@H](CN(C)C(=O)Nc2ccc(C(F)(F)F)cc2)Oc2ccc(NC(=O)NC3CCCCC3)cc2C1=O | inconclusive [activator, full curve, poor fit] |
| CN(Cc1ccccc1)c1nc(N)c([N+](=O)[O-])c(NCc2ccccc2)n1 | inconclusive [activator, partial curve, poor fit] |
| CCN(CC)S(=O)(=O)c1ccc(C(=O)NCc2n[nH]c(=S)n2Cc2ccccc2)cc1 | inconclusive [activator, partial curve, poor fit] |
| CCC(=O)NC(c1cccs1)c1cc(Cl)c2ccccc2c1O (stereo unspecified) | inconclusive [activator, single point] |
| CCSc1cc(N2CCOCC2)nc(-c2ccc(Cl)cc2)n1 | inconclusive [activator, partial curve, poor fit] |
| Cc1cccc(C(=O)Nc2nccs2)c1[N+](=O)[O-] | inconclusive [activator, single point] |
| N/C(=N\OC(=O)c1ccc(Cl)cc1Cl)c1cccnc1 | inactive |
| COc1ccc(NC(=S)Nc2cccnc2)c(OC)c1 | inactive |
| O=C(CN1CCOCC1)Nc1ccc2c(c1)OC(F)(F)O2 | inconclusive [activator, single point] |
| CC(=O)Nc1ccc2c3c(cccc13)C(=O)N(c1ccccc1)C2=O | inactive |
| CCOC(=O)C(CN1CCCC1)c1ccccc1 (stereo unspecified) | inactive |
| N#CCCN1CCN(S(=O)(=O)c2ccc3c(c2)OCCCO3)CC1 | inactive |
| CCCOC(C(=O)OC1CCN(C)CC1)(c1ccccc1)c1ccccc1 | inconclusive [activator, single point] |
| O=C(N/N=C/c1ccncc1)C1C2CCCCCCC21 (stereo unspecified) | inactive |
| CCOC(=O)c1sc(NC(=O)CSc2nnnn2-c2ccc(C)cc2C)nc1C | inconclusive [activator, partial curve] |
| Cc1cccc(NC(=O)COc2coc(CN3CCN(c4ccccc4)CC3)cc2=O)c1C | inactive |
| N#CC1=C(N)OC2=C(C(=O)CC(c3ccccc3)C2)C1c1cccnc1 (stereo unspecified) | inactive |

| SMILES | Potency |
| --- | --- |
| O=C(NCCC1=CCCCC1)C1CCN(Cc2cnn(-c3ccccc3)c2-n2cccc2)CC1 | inconclusive [activator, single point] |
| N#Cc1c(Oc2ccc3ccccc3c2)sc(C(=O)c2ccccc2)c1N | inconclusive [activator, partial curve, poor fit] |
| CCn1c(CN2CCN(C(c3ccccc3)c3ccccc3)CC2)nc2c1c(=O)n(C)c(=O)n2C | inactive |
| OCCC1CN(Cc2cccc3nonc23)CCN1C1CCCCC1 (stereo unspecified) | inconclusive [activator, single point] |
| CN(CC(=O)Nc1ccc(Cl)cc1F)C1=NS(=O)(=O)c2ccccc21 | inactive |
| CCCN(Cc1ccccc1)C(=S)Nc1ccc(F)cc1 | inactive |
| Cc1cccc(NC(=O)CSc2nnc3ccc(-c4ccccn4)nn23)c1 | inconclusive [activator, single point] |
| Cc1ccc(/C=C(\NC(=O)c2ccc(C)cc2)c2nc(=S)[nH][nH]2)cc1 | inconclusive [activator, single point] |
| Cc1nc(-c2ccccc2)sc1-c1ccn[nH]1 | inconclusive [activator, partial curve, poor fit] |
| CCOC(=O)c1csc(NC(=O)CSc2nnnn2-c2ccc3c(c2)OCCO3)n1 | inconclusive [activator, partial curve, poor fit] |
| Cc1ccc(S(=O)(=O)Nc2ccc(NC(=O)Nc3cccc(C(F)(F)F)c3)cc2)cc1 | inconclusive [activator, single point] |
| Cn1cc(/C=C/c2cc[n+](C)cc2)c2cc(Cl)ccc21 | active: 13 µM |
| CC1=CC(=C2C(=O)c3ccccc3C2=O)C=C(C)O1 | inactive |
| CCN(CC(=O)Nc1ccc2c(c1)OCCO2)C(=O)COc1ccc(C)cc1 | inactive |
| CCCCCNc1nc(NCCCO)c(C#N)c2c1CN(C)CC2 | inactive |
| CCCN(CCC)CCCNC(=O)CCNS(=O)(=O)c1ccc(Br)cc1 | inconclusive [activator, partial curve, poor fit] |
| Cc1sc2nc(CSc3ccc([N+](=O)[O-])c(C(F)(F)F)c3)[nH]c(=O)c2c1C | inconclusive [activator, single point] |
| Cc1ccc(C2CC(c3ccco3)=NN2S(C)(=O)=O)cc1 (stereo unspecified) | inactive |
| CC(Oc1ccc(F)cc1)C(=O)Nc1cc(S(=O)(=O)N2CCOCC2)ccc1N1CCCCC1 (stereo unspecified) | inconclusive [activator, single point] |
| O=C(/C=C/c1cn(CC(O)CN2CCCCC2)c2ccccc12)c1ccccc1 (stereo unspecified) | active: 20.6 µM |
| Cc1ccc(C(=O)CCS(=O)(=O)c2ccc(Br)cc2)cc1 | inconclusive [activator, single point] |
| CS(=O)(=O)NCCSCc1c(Cl)cccc1Cl | inconclusive [activator, partial curve, poor fit] |
| O=[N+]([O-])c1ccc(NS(=O)(=O)c2ccccc2)c(Cl)c1 | inconclusive [activator, partial curve, poor fit] |
| Cc1ccc(S(=O)(=O)NCC2(c3ccccc3)CCN(C)CC2)cc1 | inactive |

| SMILES | Potency |
| --- | --- |
| COc1cccc(C(=O)NCC(=O)OCc2ccc(F)cc2Cl)c1 | inconclusive [activator, single point] |
| COC(=O)c1ccc(S(=O)(=O)N2Cc3ccccc3C2)cc1 | inactive |
| Cc1ccc(CNC(=O)/C=C/c2ccc(S(=O)(=O)N3CCOCC3)cc2)cc1 | inconclusive [activator, partial curve] |
| CNC(=O)COC(=O)c1c2c(nc3ccccc13)CCC2 | inactive |
| O=C(N/N=C/c1c[nH]c2ccccc12)C1COc2ccccc2O1 (stereo unspecified) | active: 20.6 µM |
| CCOC(=O)N1C(=O)C2(CCCCC2)N(c2ccccc2Cl)C1=S | inconclusive [activator, single point] |
| Cc1ccc(-c2cc(-c3ccccc3C)[nH]n2)c(O)c1 | inconclusive [activator, single point] |
| CC(C)Cc1nc2oc3c(NCC4CCCO4)ncnc3c2c2c1CCC2 (stereo unspecified) | inconclusive [activator, partial curve] |
| COC(=O)/C(=C\c1c(OC)cc(OC)cc1OC)C(=O)c1ccc2c(c1)OCO2 | inconclusive [activator, single point] |
| CCc1c(C)c2cc(Cl)c(O)c(CN3CCCC3)c2oc1=O | inconclusive [activator, partial curve] |
| O=c1[nH]c(NCc2ccco2)nnc1Cc1ccccc1Cl | inconclusive [activator, full curve, poor fit] |
| CCN1CCN(C(=O)c2cc3cc(Cl)ccc3[nH]2)CC1 | inactive |
| COc1ccc(S(=O)(=O)N(C)c2ccc(C(=O)N3CCN(c4ccccc4)CC3)cc2)cc1OC | inconclusive [activator, single point] |
| Cc1c(Cc2ccccc2)c(=O)oc2cc(OCC(=O)c3ccccc3)ccc12 | inconclusive [activator, full curve, poor fit] |
| COCCN1Cc2cccc(C(=O)Nc3ccc(C)cc3)c2C1=O | inactive |
| NS(=O)(=O)c1ccc(NCc2cc(Cl)ccc2OCc2ccccc2F)cc1 | inconclusive [activator, single point] |
| O=C(CCCN1C(=O)c2ccccc2C1=O)Oc1ccc(Cl)cc1 | inconclusive [activator, single point] |
| CCn1c(CSc2nc3ccccc3s2)nnc1SCC(=O)NCC(=O)OC | inactive |
| COc1ccc(CNCc2ccccc2C(F)(F)F)cc1 | inconclusive [activator, single point] |
| CCCCNS(=O)(=O)c1ccc2nc(SCC(=O)c3ccccc3OC)[nH]c2c1 | inconclusive [activator, single point] |
| CC1=CC2=NC(=O)/C(=C\c3ccc(OC(=O)c4ccco4)cc3)C(=N)N2O1 | inconclusive [activator, single point] |
| Cc1noc(C)c1COc1ccccc1C(=O)N1CCN(S(=O)(=O)c2ccccc2C(F)(F)F)CC1 | inactive |
| CCC(C)NCCOc1ccc(C(C)(C)c2ccccc2)cc1 (stereo unspecified) | inconclusive [activator, full curve, poor fit] |
